# Assay results published in the supplement of paper PMC12632987.
# In all, about 2,300 sequences were measured (“median log2 fold change of GCK-ALFA target abundance (FLAG IP / Myc IP barcode read proportion)”: median about 0.095, lowest 2% from about -0.47 on). The list shows a part of the results.
# B1: LC3A_3_1378 (protein)
# chain: GEEMLEEARKILEAQGRSEEVIEAALETLKALLEKGYFEAAKTLIELLKESEDLSDEELLWFFEEIKRAVTEEDLSEEELIELIKEEFRIAKSAEEIIEL
# B2: LC3A_free_26_2132 (protein)
# chain: EEFIDIYNLDRAEELLEKIIKELEKYPEKYKELKEKAKEAKKLVKKETLESLKKAKEILEEIIKELEKREDEDPELMKKLKELAEEAKEHIEEVIEIMES
# B3: LC3A_28_1308 (protein)
# chain: SAIDERFAAAIAEARAAAAAGEPVVVTVDITAEEAEEELDTILAKLEELAAEASKVPDAVIIVDVDEKVKQENLTKIAKKAEELEKKYPNVTVIIAISDE
# B4: LC3A_28_1159 (protein)
# chain: SAIEENIERAREEAERAIERGEPTVITIKIGGDATEEDIELAIEALEELARLGQEYGLIDIVIDVDGDVKQEHIDLIADKAEEIEKKYPKVNIIIALDDE
# B5: LC3A_free_26_2151 (protein)
# chain: DEFIDIYHLDKAIEKLEEALKLAEEDPNASEELKKLVKEALEEVKKETLEGLKKAAELIKKALKLVEADPSLDEETKAKLAKLLKEALKEVEENIEIMES
# B6: LC3A_3_1904 (protein)
# chain: SEELIEKTLAYLKEKGASEETLEKARELLELLAERGLEEELKLVAESIKRLADLSVEKAAEFIERLLKFAKADKRPKEEFAKAMKEETRTLTAEAEIIEL
# B7: LC3A_147_460 (protein)
# chain: YLVTVDIDILTKNAEKEIIEDFKELAEELRAEGYEVELEIEVEQLDPNTTFIHVRIKVKAETKEEAEEAANKILDRIDEIEEKHKEDILGSLISVEIEEE
# B8: LC3A_141_375 (protein)
# chain: TTVVIEREKELNTIEEAIELIEEVEKEVLAALAKLDGKPVKVTIKVTITKKTTGEVKEYEDTVDGSPEDVELAMEGFMVEIASEVLKDPVKVTIKVTLEA
# B9: LC3A_3_1574 (protein)
# chain: SEARLAAMLARLREAGFSEAVIAAAREALEALLAKGAEEAAELVLETLLELKDAPDELLIDLLNDVLELVKTDKGSLEELTEKVKELISTYRSEAEIIEL
# B10: LC3A_23_603 (protein)
# chain: KYLVELEVSVITEPEEAAAKEKALLEKFEEIFEKYKDKIVEKEVKVTREALPDGRTFLEIRVKIVIDGTEEEALEIANELEDAAAEVVPDGVISREVEKL
# B11: LC3A_102_128 (protein)
# chain: NVEELKREKLREVEEEVRKLLEKDESLSEEEKEKVLRLALELAEHRLRNAEIEIQHGFSDIEEEDKALEALEKLEEISPEIAEKVREIVERAVEEFREEL
# B12: LC3A_free_46_2388 (protein)
# chain: ARGEIHALASPTDLETAKKLAEEARRAVEEVAKEYGVKVEVKVEIIKNEDGKYEVYIDVTIEGDDLDTVEAAADAIEERLREIAEKYGVKLASIISFEET
# B13: LC3A_59_2027 (protein)
# chain: SAELDAYIKKIIENKDDLEKLAETLLEAFTAVKDDPEKLAELKEKVVKALVESGLLSEELAKELVEEIEEIVDTEKDKEEALKKILEELRVAINENEIIE
# B14: LC3A_3_1547 (protein)
# chain: MEELREELLAELREAGASDEVLAAVAAAFDALIERGYERALEVLARETRELIGLPDELLLDFAEEVLETIETEDLNEEEVIEEIKRIARTTRNEAEIEEL
# B15: LC3A_13_332 (protein)
# chain: TITITAETPEELRAKTTAAIAAHPGEKLVITATVKDEEEADAVAEVLGELLKQAKAAGNTVDITLVGPPEYTNYAAVLIGEELAENAPDLKVDITTEEAP
# B16: LC3A_17_567 (protein)
# chain: SAEIEKAYAETLKTLKEAAEFAKTVDEEAAKKLEELIKKVEEAAKTGDPKTIAEVSAQAALEAADILESLKSPDPEKKEHLIMEMEGQAIEWESLLLKLE
# B17: LC3A_28_1217 (protein)
# chain: SEIDKELERARKEAEKAKKEGKEALLEIKIPSSATLEDVEYAMERLEEIVEEVKDLPRIDIIISFEAGVSQEVIDAAAEGGERIEKKFPNVTVIIALDEE
# B18: LC3A_free_8_2450 (protein)
# chain: SKEEIVKTALEGLDKLEEELVKKAKELGLSRLDILELELEIGEAIAELISLSDASPEEIIETTKEGLERIIKLAKELGEELEKLAKKGAEELLKKLEELK
# B19: LC3A_free_46_2320 (protein)
# chain: YKANIDIDLFGVDKEKAEAAVKEIKEKIKEIAKKYNLELEIEVEIEKNEDGTYYVNINITLKGENKEDIEKAVNEIIDSIEEIAEKYGANYVISYEIEEE
# B20: LC3A_28_762 (protein)
# chain: ATPEERVAAAIAAAREAKAAGVSDVITLTVPDGATAADVDIYIAGLREIAEILRDMENAAIVIDVEGGVAADNLQRLVDEAERIEEEYPNVTVIIALDEE
# B21: LC3A_free_12_2126 (protein)
# chain: SLEEMEKEGALIEAEYHRDDEAALTALLVSLIDAGKEEIAVEVFRYLAFELKLSEATLTAIAKAMMANPKLTPEAKAKILAIAKEAGYAETAAAIEAAMA
# B22: LC3A_28_827 (protein)
# chain: SHIEERMKKFEEEVNEAVEKGESATFTVTITSEDTLEEVKEIMEKVEELAEKAKDVPNIAIIIDLDGPISQEKLNLILEKADEIEEKYPNVSVIVALPED
# B23: LC3A_147_434 (protein)
# chain: YKVKVYIDILSKNAEEEILKAVKELVEELKKKGYKVKLKVEVEKLEDGTTYIRIEIEVEAKTEEEAQEAADYIIDKFDEIEEELKDKILGSIISVEIIEE
# B24: LC3A_23_613 (protein)
# chain: MYRVTVEADFIAEPEEARAKAEALRAAIEELLEKNRDIVEESRIEVEFEELPDGRTFLTVRVTVVVRGTREEAEALRNELVSIVDEVLPDAVISSEVEEL
# B25: LC3A_28_1176 (protein)
# chain: SALDESIAKALAEAKEAAAAKEPAAVTLTVPGTTTPEETDRAIATIEEIAKLLKGVKGSAIIVDVEAGVSQENLNRLMDAGERVEKEYPDVSVIFALDED
# B26: LC3A_3_1517 (protein)
# chain: MEELIEETLKELEEAGKSEEVIEAVRRALEALKERGYEEALETFAELMKELLDASDEILLWFAEEALRLVEEEDLDEEELIEELKRLASVAKSESEIIEL
# B27: LC3A_45_1985 (protein)
# chain: MWRATVDILVPREDGEAALAAIKAAMEELQARYGPELEFNTELLDASYEATKDEPEVYLEVEITAPDEQTALDAADELVDRLEAALGRPVAAMISTEEVP
# B28: LC3A_28_779 (protein)
# chain: NELKKNVEAALKKAKEAAEKGEEVTLTITIPKDATKEDIEYVAEALEEIAKLSEKMKRVDIVIDIEAGVKEEYIKYLSEKGDELSKKNPKVTVVFALEEE
# B29: LC3A_147_481 (protein)
# chain: MEVDIDVLVKNQAAADAFIAHVQAAAAELRAEGVEVDVDITREQLDPNTWYIEVRLRLRAPTAEAERAAAQRFVDSIDAFIEEHKDEILAALISVTEVEP
# Target: MAP1LC3A, Q9H492
# Assay: median log2 fold change of GCK-ALFA target abundance (FLAG IP / Myc IP barcode read proportion) (log2 ratio); each designed protein is fused to an ALFA-tag nanobody in HEK293 cells to bring the named protein to FLAG-tagged glucokinase (GCK); Myc marks an untargeted standard; higher = target protein stabilised (more abundant)
# Details: target protein: 3xFLAG-MCP-GCK-ALFA reporter; HEK293 landing pad (RPLP)
# Outline: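 The readout is target abundance, the per-binder median log2 ratio of FLAG to Myc barcode read proportions. It came from HEK293 landing-pad cells carrying a recombined ALFA-nanobody-fused binder library, induced with 2 μg mL^−1 doxycycline and transfected with a plasmid for a FLAG-tagged target and a Myc-tagged standard. After 48 h, lysates were immunoprecipitated with anti-FLAG and anti-Myc, and circular RNA barcodes were reverse transcribed, amplified and sequenced. Each barcode needed a proportion of at least 10^−7 in both replicates and each binder at least 3 barcodes per replicate, a pseudocount of 10^−6 was added, and the replicates were pooled.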
row,Binder,median log2 fold change
1,B1,0.0895
2,B2,-0.0992
3,B3,0.124
4,B4,-0.116
5,B5,0.093
6,B6,0.242
7,B7,-0.416
8,B8,-0.0874
9,B9,0.119
10,B10,0.0328
11,B11,0.236
12,B12,0.0487
13,B13,0.297
14,B14,-0.0616
15,B15,0.182
16,B16,0.303
17,B17,0.24
18,B18,-0.101
19,B19,-0.195
20,B20,0.086
21,B21,0.366
22,B22,-0.269
23,B23,0.121
24,B24,-0.00193
25,B25,-0.37
26,B26,0.126
27,B27,0.0325
28,B28,0.237
29,B29,0.0403
